# Reference: the supplement of paper PMC8728848
# Some of the results follow.
# B1: CrataBL (Crataeva tapia), C0HJA4 (protein)
# chain: AILTGVPYYILPSTSRAGFSPDNLRKNTSQLSCPLDLITQLRFPRRIGVPVIFTPQNSSLKVVPLSHNLNIHTCSDLWFCPESKIWTVKSSLTHGGSVVTTGGTFRSLGSWFRIERHGDSYKLVHCPRGSTPCRDVGIETVGGGGRRYLAPRDRPLAVRFTRASG
# Columns and labels:
# Experiment in all cases: glycan array binding signal (z-score within array); higher = stronger binding
# Details in all cases: glycan notation: IUPAC condensed, linker removed
# [1] = target: Fuc(a1-2)[GalNAc(a1-3)]Gal(b1-3)GlcNAc(b1-3)GalNAc
# Procedure, shortened: (§1)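 Glycan array data were curated from 3228 arrays in the Consortium for Functional Glycomics database and kept only where the protein sequence was available. Glycan names were converted to IUPAC-condensed notation, and columns mapping to the same glycan were averaged. The binding signal is a within-array Z-score, averaged across arrays of the same protein sequence at different concentrations or buffers and across linkers. Negative Z-scores can be read as non-binding.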
# [2] = target: Fuc(a1-2)[GalNAc(a1-3)]Gal(b1-3)GlcNAc(b1-6)GalNAc
# Procedure, shortened: as §1
# [3] = target: Fuc(a1-2)[GalNAc(a1-3)]Gal(b1-4)Glc
# Procedure, shortened: as §1
# [4] = target: Fuc(a1-2)[GalNAc(a1-3)]Gal(b1-4)GlcNAc
# Procedure, shortened: as §1
# [5] = target: Fuc(a1-2)[GalNAc(a1-3)]Gal(b1-4)GlcNAc(b1-2)Man
# Procedure, shortened: as §1
# [6] = target: Fuc(a1-2)[GalNAc(a1-3)]Gal(b1-4)GlcNAc(b1-2)Man(a1-3)[Fuc(a1-2)[GalNAc(a1-3)]Gal(b1-4)GlcNAc(b1-2)Man(a1-6)]Man(b1-4)GlcNAc(b1-4)GlcNAc
# Procedure, shortened: as §1
# [7] = target: Fuc(a1-2)[GalNAc(a1-3)]Gal(b1-4)GlcNAc(b1-2)Man(a1-3)[Fuc(a1-2)[GalNAc(a1-3)]Gal(b1-4)GlcNAc(b1-2)Man(a1-6)]Man(b1-4)GlcNAc(b1-4)[Fuc(a1-6)]GlcNAc
# Procedure, shortened: as §1
# [8] = target: Fuc(a1-2)[GalNAc(a1-3)]Gal(b1-4)GlcNAc(b1-3)Gal(b1-4)GlcNAc
# Procedure, shortened: as §1
# [9] = target: Fuc(a1-2)[GalNAc(a1-3)]Gal(b1-4)GlcNAc(b1-3)Gal(b1-4)GlcNAc(b1-3)Gal(b1-4)GlcNAc
# Procedure, shortened: as §1
# [10] = target: Fuc(a1-2)[GalNAc(a1-3)]Gal(b1-4)GlcNAc(b1-3)GalNAc
# Procedure, shortened: as §1
# [11] = target: Fuc(a1-2)[GalNAc(a1-3)]Gal(b1-4)GlcNAc(b1-3)[Fuc(a1-2)[GalNAc(a1-3)]Gal(b1-4)GlcNAc(b1-6)]GalNAc
# Procedure, shortened: as §1
# [12] = target: Fuc(a1-2)[GalNAc(a1-3)]Gal(b1-4)GlcNAc(b1-6)GalNAc
# Procedure, shortened: as §1
# [13] = target: Fuc(a1-2)[GalNAc(a1-3)]Gal(b1-4)[Fuc(a1-3)]GlcNAc
# Procedure, shortened: as §1
# [14] = target: Fuc(a1-2)[GalNAc(a1-3)]Gal(b1-4)[Fuc(a1-3)]GlcNAc(b1-3)GalNAc
# Procedure, shortened: as §1
# [15] = target: Fuc(a1-2)[GalNAc(a1-4)]Gal(b1-4)GlcNAc
# Procedure, shortened: as §1
# [16] = target: Fuc(a1-2)[GalNAc(b1-3)]Gal
# Procedure, shortened: as §1
# Fuc(a1-3)GlcNAc = target: Fuc(a1-3)GlcNAc
# Procedure, shortened: as §1
# [17] = target: Fuc(a1-3)[Gal(b1-4)]Glc6S
# Procedure, shortened: as §1
# [18] = target: Fuc(a1-3)[Gal(b1-4)]GlcNAc
# Procedure, shortened: as §1
# [19] = target: Fuc(a1-3)[Gal(b1-4)]GlcNAc(b1-2)Man
# Procedure, shortened: as §1
# [20] = target: Fuc(a1-3)[Gal(b1-4)]GlcNAc(b1-2)Man(a1-3)[Fuc(a1-3)[Gal(b1-4)]GlcNAc(b1-2)Man(a1-6)]Man(b1-4)GlcNAc(b1-4)GlcNAc
# Procedure, shortened: as §1
# [21] = target: Fuc(a1-3)[Gal(b1-4)]GlcNAc(b1-2)Man(a1-3)[Fuc(a1-3)[Gal(b1-4)]GlcNAc(b1-2)Man(a1-6)]Man(b1-4)GlcNAc(b1-4)[Fuc(a1-6)]GlcNAc
# Procedure, shortened: as §1
# [22] = target: Fuc(a1-3)[Gal(b1-4)]GlcNAc(b1-3)Gal(b1-3)[Fuc(a1-4)]GlcNAc
# Procedure, shortened: as §1
# [23] = target: Fuc(a1-3)[Gal(b1-4)]GlcNAc(b1-3)Gal(b1-4)[Fuc(a1-3)]GlcNAc
# Procedure, shortened: as §1
# [24] = target: Fuc(a1-3)[Gal(b1-4)]GlcNAc(b1-3)Gal(b1-4)[Fuc(a1-3)]GlcNAc(b1-3)Gal(b1-4)[Fuc(a1-3)]GlcNAc
# Procedure, shortened: as §1
# [25] = target: Fuc(a1-3)[Gal(b1-4)]GlcNAc(b1-3)GalNAc
# Procedure, shortened: as §1
# [26] = target: Fuc(a1-3)[Gal(b1-4)]GlcNAc(b1-6)GalNAc
# Procedure, shortened: as §1
# [27] = target: Fuc(a1-3)[Gal(b1-4)]GlcNAc(b1-6)[Gal(b1-3)GlcNAc(b1-3)]Gal(b1-4)Glc
# Procedure, shortened: as §1
# [28] = target: Fuc(a1-3)[Gal(b1-4)]GlcNAc6S
# Procedure, shortened: as §1
# [29] = target: Fuc(a1-3)[Gal3S(b1-4)]Glc
# Procedure, shortened: as §1
# [30] = target: Fuc(a1-3)[Gal3S(b1-4)]GlcNAc
# Procedure, shortened: as §1
# [31] = target: Fuc(a1-3)[Gal3S(b1-4)]GlcNAc6S
# Procedure, shortened: as §1
# [32] = target: Fuc(a1-3)[GalNAc(b1-4)]GlcNAc
# Procedure, shortened: as §1
# [33] = target: Fuc(a1-3)[GalNAc(b1-4)]GlcNAc6S
# Procedure, shortened: as §1
# Fuc(a1-4)GlcNAc = target: Fuc(a1-4)GlcNAc
# Procedure, shortened: as §1
# Fuc(b1-3)GlcNAc = target: Fuc(b1-3)GlcNAc
# Procedure, shortened: as §1
# Gal(a1-2)Gal = target: Gal(a1-2)Gal
# Procedure, shortened: as §1
binder,measurement,setting,value
B1,glycan array binding signal (z-score),[1],-0.331
same,glycan array binding signal (z-score),[2],-0.478
same,glycan array binding signal (z-score),[3],-0.442
same,glycan array binding signal (z-score),[4],-0.5
same,glycan array binding signal (z-score),[5],-0.507
same,glycan array binding signal (z-score),[6],0.007
same,glycan array binding signal (z-score),[7],-0.312
same,glycan array binding signal (z-score),[8],-0.338
same,glycan array binding signal (z-score),[9],0.355
same,glycan array binding signal (z-score),[10],-0.392
same,glycan array binding signal (z-score),[11],-0.362
same,glycan array binding signal (z-score),[12],-0.533
same,glycan array binding signal (z-score),[13],-0.257
same,glycan array binding signal (z-score),[14],0.619
same,glycan array binding signal (z-score),[15],-0.383
same,glycan array binding signal (z-score),[16],-0.158
same,glycan array binding signal (z-score),Fuc(a1-3)GlcNAc,-0.438
same,glycan array binding signal (z-score),[17],0.383
same,glycan array binding signal (z-score),[18],-0.348
same,glycan array binding signal (z-score),[19],-0.427
same,glycan array binding signal (z-score),[20],-0.41
same,glycan array binding signal (z-score),[21],0.148
same,glycan array binding signal (z-score),[22],-0.469
same,glycan array binding signal (z-score),[23],-0.282
same,glycan array binding signal (z-score),[24],-0.139
same,glycan array binding signal (z-score),[25],-0.415
same,glycan array binding signal (z-score),[26],-0.407
same,glycan array binding signal (z-score),[27],-0.443
same,glycan array binding signal (z-score),[28],1.12
same,glycan array binding signal (z-score),[29],-0.449
same,glycan array binding signal (z-score),[30],-0.258
same,glycan array binding signal (z-score),[31],0.946
same,glycan array binding signal (z-score),[32],-0.227
same,glycan array binding signal (z-score),[33],0.386
same,glycan array binding signal (z-score),Fuc(a1-4)GlcNAc,1.89
same,glycan array binding signal (z-score),Fuc(b1-3)GlcNAc,-0.367
same,glycan array binding signal (z-score),Gal(a1-2)Gal,-0.402
